Test results: the supplement of paper PMC3334620
Over roughly 33,000 sequences, “E-score (-0.5 to 0.5)” has its median near -0.011; the highest 2% begin near 0.28. This is one part of the list.

Target: T1, Gcr1 (UniProt P07261)
T1 sequence: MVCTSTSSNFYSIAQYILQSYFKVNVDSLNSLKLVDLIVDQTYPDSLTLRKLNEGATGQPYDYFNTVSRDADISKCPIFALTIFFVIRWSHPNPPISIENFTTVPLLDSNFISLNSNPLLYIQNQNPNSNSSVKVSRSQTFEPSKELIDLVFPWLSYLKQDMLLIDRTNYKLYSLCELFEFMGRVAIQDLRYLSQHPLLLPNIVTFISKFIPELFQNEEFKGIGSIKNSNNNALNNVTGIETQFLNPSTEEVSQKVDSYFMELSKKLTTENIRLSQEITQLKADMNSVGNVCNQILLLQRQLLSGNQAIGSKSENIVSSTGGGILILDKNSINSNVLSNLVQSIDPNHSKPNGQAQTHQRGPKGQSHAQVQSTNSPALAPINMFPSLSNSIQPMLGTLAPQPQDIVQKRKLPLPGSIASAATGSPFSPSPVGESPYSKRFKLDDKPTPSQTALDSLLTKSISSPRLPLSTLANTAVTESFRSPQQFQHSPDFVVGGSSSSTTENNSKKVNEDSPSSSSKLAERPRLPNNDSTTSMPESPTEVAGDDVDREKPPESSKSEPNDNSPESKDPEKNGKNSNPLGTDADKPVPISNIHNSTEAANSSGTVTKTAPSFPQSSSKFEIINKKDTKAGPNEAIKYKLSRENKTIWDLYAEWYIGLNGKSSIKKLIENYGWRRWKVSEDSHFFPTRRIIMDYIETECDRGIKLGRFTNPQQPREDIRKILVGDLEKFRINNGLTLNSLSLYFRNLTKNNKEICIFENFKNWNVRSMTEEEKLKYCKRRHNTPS
Assay: PBM E-score (8-mer binding enrichment) (E-score (-0.5 to 0.5)); higher = stronger / more preferred TF binding; most listed sequences are background and not binding sites
Conditions: protein concentration: 100 nM; construct: GST-full length
Outline: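 For each ungapped eight-base word taken together with its reverse complement, the Universal PBM Analysis Suite assigned an E-score. Binding data came from GST-tagged yeast transcription factors, applied at about 100-200 nM, on universal all-10-mer Agilent arrays made double-stranded by primer extension. Fluorescent anti-GST marked bound protein, and scans were normalised with masliner.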

Sequence | PBM E-score
AATTTTAG | 0.0728
CCATCGCA | -0.0461
GGCCTATA | 0.0391
CTACTCTC | -0.193
AGAAATTG | 0.151
CCATCTCA | 0.00204
CAAGTCGC | -0.0911
ACGAGCAC | -0.0665
ACCTTCAA | -0.202
CGCCCGCG | 0.0931
CGGGTACA | 0.0952
ACTCCTAT | 0.115
CACCGTAG | -0.0833
CCTTTCGC | -0.0605
CGTTGGTC | -0.0759
GTTACCGA | -0.0728
CTCTATGC | -0.0122
CACGACTA | -0.203
GCTAGCCA | -0.232
TAGAACAA | -0.113
CACGGGCC | -0.103
CGAGGAGC | -0.148
GCAACTAC | 0.178
TCCAGCGA | 0.0412
AACAACTA | 0.0332

Sequence | PBM E-score
ATCTAGCG | -0.00302
CCTTTGGC | -0.087
CGAATTTC | 0.0814
CACTAGAA | 0.0986
CACCTCCG | -0.0483
CGGGATAA | 0.0532
AGTTCAGG | 0.0561
AGTGGACA | -0.0203
CACAAACG | 0.0553
CCGTGGAC | -0.0384
CGCGTATA | 0.256
CGGATTAA | -0.0875
AGGGGCAC | 0.0184
GTCCGAAC | 0.0651
AGGTGCGC | -0.0333
CGAACCCC | 0.0243
ATGTTGTC | -0.117
GGATAAAA | 0.255
ATAGCATG | -0.0869
AGACACAC | -0.11
CCGGCGGC | 0.214
CACGACAC | -0.185
CCACAAGA | 0.203
CTATAAAA | 0.193
ATCGTATG | 0.139

Sequence | PBM E-score
GCCTAATA | -0.051
ATGCGTCA | -0.033
CCTCATTC | 0.0288
TAGACCGA | -0.0554
GAAGTTCC | 0.0578
GTACTCCA | 0.032
GAATTCTA | 0.148
GCGACAAC | 0.0221
AAGTAACC | -0.0184
CTGAACCC | -0.0928
CCAACGAA | 0.0869
ACGTCCGG | -0.0342
AGCATCAA | 0.0409
AACGTCAT | -0.00568
AGTTAGGC | 0.0125
AGTCCCGA | -0.15
CTCGCTGC | 0.0762
GCGCCTCC | 0.104
TAACTCCA | -0.151
CTAGCCGA | -0.0683
CTTATGGC | 0.0336
GTCCAACA | 0.103
AAGACCGT | -0.177
ACGCTGAA | 0.0619
GGGCTTTA | -0.058

Sequence | PBM E-score
CACTTGTC | -0.115
GCCAGGCC | -0.324
AACTCAAC | 0.114
GTCATCAA | 0.074
GCGTAGTA | -0.0497
AATAGCAC | 0.0185
CAAATGAC | 0.242
CTGGCACA | -0.0796
ATTTTCGC | 0.00527
ACCTAAGG | -0.0254
ATGGGATG | 0.0554
TCTACAGA | -0.176
ATGAGCGA | -0.0523
AGCAAACG | -0.144
ATTTAACC | 0.0266
GTTTAGCA | -0.18
GGTTCGGA | 0.0134
CACGTTGA | 0.0217
GACCCGGC | 0.0182
GCGGCACA | -0.177
AAGCGAGA | 0.0585
ACCTCGGA | -0.132
CCAAGAGA | -0.151
CTCCGGGA | 0.00075
AGATGCGA | 0.135

Sequence | PBM E-score
CCGACAAG | 0.0334
ATATGTGA | 0.0163
CCCTCTCC | -0.179
CCAGTGGA | 0.0326
CGTTTTGA | -0.0332
AGTTGAAA | 0.167
CATCTGCG | 0.136
ATAACTGA | 0.0854
TGGCACAA | -0.0481
GTTGAAAC | -0.149
TACCTAAA | 0.0795
GGGCGGAC | -0.0774
CTGTGCGC | 0.0563
ATAGTAGG | 0.051
AGGTTCAA | -0.25
CTTCACAC | -0.239
CGAGATTA | 0.0479
AAGAAGCC | 0.401
TCGTGGAA | 0.158
CCATTAAC | 0.128
AGACTCTC | -0.0599
GAGTAATA | 0.153
ACATTACT | -0.118
AGTTTACG | 0.0614
AGTCTTAT | -0.187

Sequence | PBM E-score
GTTGGTTA | -0.0488
CCTAGCAG | -0.131
CTACGCAA | -0.134
AGGCCATA | -0.192
ACTTAGTG | 0.143
ATCGATAC | 0.114
AGGATAAC | -0.061
CCATCGAC | -0.155
ATGGTAAC | -0.0277
TAGAAAAA | 0.0205
GAACGTCC | -0.0379
AACTATGA | -0.137
AGCCACGA | 0.0571
CACCTGGG | 0.0554
AGTGATGG | -0.0125
GATCGCAA | -0.0291
GGCAGTTA | 0.061
CAACGGCA | -0.104
CCCGCAGC | 0.194
GGGAAATA | -0.104
CTATCTGC | -0.0457
GCCACGTA | 0.159
CAGCTACG | 0.123
GACAGATA | 0.0132
GTCATTAA | 0.0346

Sequence | PBM E-score
AAATGAAC | -0.0469
CGCGGTCC | -0.283
CATGCTTC | -0.107
CGAGCAAA | -0.108
AAACCGCG | -0.0566
CCGAGATA | 0.0614
CAGACGAA | 0.188
CGCTTCGA | -0.0778
GGCCAGAA | -0.0131
ACTACTTA | 0.148
TCCCGGGA | 0.271
CTCTGGAA | 0.256
ACAACAAA | -0.0593
CCTCGGCA | -0.217
CTTGCTTC | -0.0756
AGTTCATA | 0.104
GTCACAAC | -0.0653
GCGAGGAC | -0.271
CGACGGAA | 0.0253
GCGCCTGA | 0.171
CACTGGAC | 0.0576
ATAGGGAT | 0.035
AAGCACCG | 0.0663
ATGGAAAT | 0.131
GGCAGCGA | 0.0747

Sequence | PBM E-score
GGGATACA | 0.189
ACCGAGGC | -0.259
GGTCTCGA | -0.1
GACGGTCA | -0.282
CTCCGGAC | -0.0074
AACGCGCG | -0.0701
CCACACAC | 0.18
AGAAATCA | -0.0355
CCCCTAGA | -0.0902
GATGATGC | 0.0601
GTGCCATA | -0.132
GCTAAGCC | -0.193
CCGCGTAG | -0.0306
TAACGCAA | 0.184
CCGTCCAG | -0.095
GGAACCAA | 0.31
GATCCCCC | 0.176
AAGAGTGG | 0.108
GGATACTA | 0.265
ACACAGGC | 0.0795
GAACGTTA | -0.161
ATCTAAAG | -0.118
AGTTGCCG | 0.16
CCGTTCAG | 0.0825
CTTAGGCC | -0.331

Sequence | PBM E-score
ACGTCTAA | 0.22
CCTTTTCG | -0.0678
CGCTAGCC | -0.209
CTCCTCAA | 0.00872
CCGATATA | 0.109
GTTCCCAA | 0.145
CTCCCCAA | 0.0917
AATTATTA | 0.228
CATTACGG | -0.107
GGTCTAGA | 0.0412
GCGCATAC | 0.0321
CACGGTAA | -0.233
GCGCAACC | -0.0761
CGCAACAC | 0.0549
CTATTGGA | 0.237
CTAGGGAA | 0.0131
CTCGACAC | -0.144
AAGTCGGG | -0.0158
GACTTTGA | -0.102
